Source: the supplement of paper PMC3334620
In all, about 33,000 sequences were measured (“E-score (-0.5 to 0.5)”: median about -0.035, highest 2% from about 0.35 on). The list shows a part of the results.

target: T1, Pdr3 (UniProt P33200); test: PBM E-score (8-mer binding enrichment) (E-score (-0.5 to 0.5)); higher = stronger / more preferred TF binding; most listed sequences are background and not binding sites; details: protein concentration: 200 nM; construct: GST-full length
T1 sequence: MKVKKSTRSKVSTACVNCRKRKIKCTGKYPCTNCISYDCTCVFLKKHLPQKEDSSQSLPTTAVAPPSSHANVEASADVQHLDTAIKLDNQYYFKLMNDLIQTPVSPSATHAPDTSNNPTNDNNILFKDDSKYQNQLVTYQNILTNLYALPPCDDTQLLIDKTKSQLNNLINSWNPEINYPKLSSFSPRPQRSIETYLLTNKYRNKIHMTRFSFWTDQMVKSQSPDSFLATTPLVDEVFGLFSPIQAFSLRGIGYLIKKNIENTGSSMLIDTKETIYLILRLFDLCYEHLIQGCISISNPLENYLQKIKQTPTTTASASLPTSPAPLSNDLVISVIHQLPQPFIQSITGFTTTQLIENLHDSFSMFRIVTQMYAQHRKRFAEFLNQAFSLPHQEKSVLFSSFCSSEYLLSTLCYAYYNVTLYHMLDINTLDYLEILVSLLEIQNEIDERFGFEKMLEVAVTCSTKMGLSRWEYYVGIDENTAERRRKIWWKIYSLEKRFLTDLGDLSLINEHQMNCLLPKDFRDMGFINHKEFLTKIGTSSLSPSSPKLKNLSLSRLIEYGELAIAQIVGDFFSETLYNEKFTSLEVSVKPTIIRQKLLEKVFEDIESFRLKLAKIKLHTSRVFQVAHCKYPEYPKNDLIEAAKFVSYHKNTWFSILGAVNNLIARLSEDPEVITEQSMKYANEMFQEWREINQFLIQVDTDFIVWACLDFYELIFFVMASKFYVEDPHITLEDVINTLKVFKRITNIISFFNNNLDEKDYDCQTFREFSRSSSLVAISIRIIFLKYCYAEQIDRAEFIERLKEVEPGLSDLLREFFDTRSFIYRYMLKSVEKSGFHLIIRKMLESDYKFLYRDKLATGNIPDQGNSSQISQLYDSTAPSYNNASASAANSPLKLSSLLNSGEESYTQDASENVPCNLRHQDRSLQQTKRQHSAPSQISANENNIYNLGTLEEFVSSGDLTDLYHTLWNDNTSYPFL
Outline: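 Masliner-normalised scans of fluorescent anti-GST signal were the basis for scoring. That signal came from GST-tagged yeast transcription factors applied at about 100-200 nM to double-stranded universal all-10-mer Agilent arrays on fresh or once-stripped slides. Each ungapped eight-base word, pooled with its reverse complement, received an E-score from the Universal PBM Analysis Suite.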

| Sequence | PBM E-score |
| --- | --- |
| TAGTTTAA | 0.0408 |
| CATGCATG | -0.151 |
| AGTGGCCA | -0.0958 |
| AACTCATT | 0.0859 |
| GACACAGA | 0.0915 |
| CAGCCTAA | -0.25 |
| AAGGGACT | -0.167 |
| AAGACTAT | -0.13 |
| AAGATTCA | 0.0105 |
| CCAACTAC | 0.00948 |
| CCGCTCAG | -0.0398 |
| CCATCGAG | 0.0771 |
| TATTAATA | 0.105 |
| CTCCTCGA | -0.19 |
| ACGGACAC | 0.321 |
| CAACACGG | 0.184 |
| CTTCGCGC | 0.274 |
| CAGGTTCA | -0.16 |
| CTGGACTA | -0.245 |
| CCAAGGAG | 0.0202 |
| CGTGTGAA | -0.0144 |
| GCGATCTA | -0.0287 |
| ATCGAGAC | -0.0995 |
| AGCCATAT | -0.0397 |
| ATCGTGCA | -0.107 |

| Sequence | PBM E-score |
| --- | --- |
| AATGGTTA | -0.0805 |
| CCACGCCG | 0.0652 |
| CCCTATAA | -0.032 |
| ACGTACTC | 0.073 |
| TCCATAAA | -0.128 |
| CGATCCTC | -0.0462 |
| CTCTGGTC | -0.014 |
| AAGGCAGA | -0.284 |
| GTCTCCAC | -0.208 |
| GATCCAGA | 0.106 |
| CAGCGATA | -0.102 |
| AGATAATC | 0.0844 |
| ACACTTCT | -0.091 |
| AGGGCGGC | -0.0768 |
| ATTGATAG | -0.0537 |
| CCATATAC | 0.0579 |
| CAGCAGTC | -0.156 |
| ATATAACA | 0.0403 |
| CTATGAAA | 0.0145 |
| TACAACAA | -0.105 |
| CGCTGAGA | 0.0316 |
| TGCGTACA | -0.207 |
| ACTGTCCG | 0.303 |
| CTGTGGTA | -0.0336 |
| AACCTTAC | 0.0452 |

| Sequence | PBM E-score |
| --- | --- |
| GCCAGAAA | 0.119 |
| GTTCATAA | -0.188 |
| GTCTGTTA | -0.00771 |
| AATCTACC | 0.14 |
| GACACCTA | -0.128 |
| ACAAGAAT | -0.0798 |
| CAGAGCAG | -0.0775 |
| ACGGCCCG | 0.22 |
| AATTGTAC | 0.0292 |
| CAACATAC | 0.0348 |
| GAGTGCGA | 0.064 |
| CTTAAGCC | -0.00776 |
| ACTTCACA | -0.222 |
| CCCAACGC | -0.134 |
| CTGGGAAC | 0.151 |
| ACTTTGGA | -0.132 |
| GGTTTAAC | -0.097 |
| GCATCCAC | 0.0386 |
| ACTCTCTC | 0.0728 |
| ATGCGTTG | -0.157 |
| ACTGTTTG | -0.123 |
| AGTATACA | -0.12 |
| GACTTAAA | -0.218 |
| ACGCATCT | 0.00401 |
| GCATGTCC | -0.00854 |

| Sequence | PBM E-score |
| --- | --- |
| CAGTCGCA | -0.192 |
| TGTAGACA | -0.164 |
| CATGATAA | -0.106 |
| CGGCTCAG | 0.253 |
| CTGTTCTA | -0.0869 |
| ACGCATAG | -0.0745 |
| CTCGGAAC | 0.474 |
| ATCGTGTA | -0.172 |
| CTGCCACC | -0.158 |
| ACAAGCGC | 0.163 |
| ACCGAATC | 0.0805 |
| TTTCGAAA | -0.184 |
| AGGTACTG | -0.116 |
| GGGACCAC | 0.122 |
| ATTAGACA | -0.209 |
| ACGGAGAT | 0.291 |
| AAATTAAC | 0.185 |
| AGCCGATG | 0.0484 |
| CACACCTA | -0.0215 |
| CGGGGCCA | 0.306 |
| ACTGGCAT | -0.214 |
| CAATTATG | -0.00118 |
| ACGCATAT | -0.122 |
| CCTCGTTC | -0.0772 |
| TATTACGA | 0.0728 |

| Sequence | PBM E-score |
| --- | --- |
| ATATTGAT | 0.162 |
| ATCAAACA | -0.0121 |
| AATCCCAA | -0.151 |
| CATCCTCG | 0.169 |
| AGCGTTCC | 0.222 |
| GATTAATC | 0.276 |
| CTATTGAG | -0.128 |
| CTGGTCCC | -0.0336 |
| CCAACGAG | -0.16 |
| AACTATTA | -0.0105 |
| ACTTAATG | -0.0064 |
| ATATTATG | 0.189 |
| GTCGCTAA | 0.019 |
| ATATGCAA | 0.0516 |
| AGGGCTCG | -0.0445 |
| CCTCACCA | -0.111 |
| AAGAAATG | 0.0219 |
| ACCGAGGG | -0.125 |
| AAGTGGTA | -0.173 |
| ATTTTTGA | -0.0616 |
| CTACTCTA | -0.0917 |
| CGATTAAA | 0.184 |
| GATCTGAC | -0.0022 |
| ATTTGGTA | 0.0828 |
| CCCGGGTC | 0.426 |

| Sequence | PBM E-score |
| --- | --- |
| AGCGCGGC | 0.107 |
| CGGGTAAA | 0.243 |
| AGTAGGCG | 0.0216 |
| CTATAGTA | 0.112 |
| CAACTCGA | -0.0562 |
| ACGACTGA | -0.236 |
| CGCCATGA | -0.00304 |
| TACTGTAA | -0.0308 |
| ATTGTCTC | 0.0139 |
| TGAAACCA | 0.117 |
| ATCCTTGA | 0.0292 |
| CGAGATGC | 0.00614 |
| GGGACCCA | 0.0952 |
| ACCCTCAA | -0.158 |
| AATTTCCG | 0.442 |
| ATATCAGG | -0.177 |
| ATTTCAAA | -0.0978 |
| CACGCGCA | -0.0668 |
| AATAGCTG | -0.0173 |
| GGTGGGAA | 0.0317 |
| CCTCCGCC | 0.169 |
| GAATGCGA | 0.0648 |
| AGTAGCTA | 0.0784 |
| CTATCCAG | -0.111 |
| AGCATACA | -0.127 |

| Sequence | PBM E-score |
| --- | --- |
| GTTTCGGA | 0.276 |
| GGTAGCAC | -0.0627 |
| AGGCCGTG | 0.101 |
| AAGTAATT | 0.0148 |
| ATTATTTC | 0.288 |
| CCTCCCAG | -0.165 |
| CACAACGC | 0.0223 |
| AGCCTTAT | -0.0184 |
| GGGATCAA | 0.0879 |
| GACGGACA | 0.335 |
| CGGTGGAG | 0.0653 |
| CTCAAGCC | 0.00839 |
| GAGAGAGC | -0.0923 |
| CGGCCGAA | 0.333 |
| AACAGGTT | -0.115 |
| AGTTCATG | 0.199 |
| CAATCAGC | -0.11 |
| ATGACGTC | 0.13 |
| AATTGATG | 0.0138 |
| CCCAGCGC | 0.0116 |
| AATTGCAA | 0.115 |
| CATGCGCC | 0.0785 |
